# Test results as given in paper PMC4336329 (PLoS ONE, 2015).
# Screen size: about 310,000 compounds; about 14,000 (4.5%) showed an effect of 50% or more. Effects have a minus sign here. This is one part of the list.
# Molecular target: human ether-à-go-go-related gene (hERG) potassium channel (human, UniProt Q12809)
# Assay: primary screen, population patch clamp on CHO cells stably expressing hERG
# 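Further: peak tail current of the secondary pulse compared with the same well before compound.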
# human ether-à-go-go-related gene (hERG) potassium channel, sequence (Q12809 whole entry, looked up): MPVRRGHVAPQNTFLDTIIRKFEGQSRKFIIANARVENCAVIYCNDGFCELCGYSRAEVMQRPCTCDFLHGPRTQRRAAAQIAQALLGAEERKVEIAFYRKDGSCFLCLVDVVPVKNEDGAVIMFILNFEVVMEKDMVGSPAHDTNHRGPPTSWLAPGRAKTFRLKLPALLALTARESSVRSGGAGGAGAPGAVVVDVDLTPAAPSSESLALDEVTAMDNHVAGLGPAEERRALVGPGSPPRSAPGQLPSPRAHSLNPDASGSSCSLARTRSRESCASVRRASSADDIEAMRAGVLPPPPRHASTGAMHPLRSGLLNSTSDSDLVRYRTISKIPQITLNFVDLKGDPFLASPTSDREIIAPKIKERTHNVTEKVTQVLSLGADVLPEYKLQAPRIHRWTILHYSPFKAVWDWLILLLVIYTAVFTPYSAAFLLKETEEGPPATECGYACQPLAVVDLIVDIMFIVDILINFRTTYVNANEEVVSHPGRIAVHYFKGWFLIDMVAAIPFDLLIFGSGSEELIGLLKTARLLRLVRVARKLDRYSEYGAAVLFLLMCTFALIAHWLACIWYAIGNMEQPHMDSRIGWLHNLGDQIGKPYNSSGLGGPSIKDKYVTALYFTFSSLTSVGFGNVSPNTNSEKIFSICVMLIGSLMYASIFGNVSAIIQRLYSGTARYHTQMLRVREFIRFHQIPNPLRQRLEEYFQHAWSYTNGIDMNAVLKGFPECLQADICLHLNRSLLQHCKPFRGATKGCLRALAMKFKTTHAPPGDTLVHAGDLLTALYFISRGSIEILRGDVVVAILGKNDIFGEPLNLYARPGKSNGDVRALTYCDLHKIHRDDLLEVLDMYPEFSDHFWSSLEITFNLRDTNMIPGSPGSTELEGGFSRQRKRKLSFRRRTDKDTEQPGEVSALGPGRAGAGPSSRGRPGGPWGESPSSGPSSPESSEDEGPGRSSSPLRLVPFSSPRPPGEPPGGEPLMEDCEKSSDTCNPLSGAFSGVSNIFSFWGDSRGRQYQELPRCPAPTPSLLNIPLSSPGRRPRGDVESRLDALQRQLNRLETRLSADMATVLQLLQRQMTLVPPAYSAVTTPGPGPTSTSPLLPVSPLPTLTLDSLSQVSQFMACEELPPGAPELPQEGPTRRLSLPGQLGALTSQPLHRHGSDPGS
row,Structure (SMILES),"hERG current change (%, negative = inhibition) at 10uM"
1,O=C(Cn1ncc2c(=O)oc3ccccc3c21)NCC1CCCO1 (centres unmarked),9.96%
2,O=C(CSc1n[nH]c(=O)[nH]c1=O)Nc1ccc2c(c1)C(=O)c1ccccc1C2=O,0.284%
3,COC(=O)C1=C(C(=O)OC)[C@@H]2N(C)c3ccccc3[C@@]23C[C@@H](C(=O)OC)N(C(=O)c2cc(C)oc2C)C3=N1,-10%
4,CN(C)c1ccc(NS(=O)(=O)c2cc3c4c(c2)CC(=O)N4CCC3)cc1,5.66%
5,COc1ccc(S(=O)(=O)NCCc2csc(C)n2)cc1C,12.4%
6,O=C(Nc1cccc(NC(=O)c2c(F)cccc2F)n1)c1c(F)cccc1F,29.2%
7,COC(=O)COc1ccc(-c2nn(C)c(=O)c3ccccc23)cc1,2.26%
8,CCCCCCSc1ccc([C@H]2N[C@@](C)(C(=O)OC)[C@H]3C(=O)N(C)C(=O)[C@@H]23)cc1.O=C(O)C(F)(F)F,-12.2%
9,CC(C)n1c(Oc2ccc(F)cc2)nc2c1c(=O)n(C)c(=O)n2C,-9.1%
10,O=C1C(=O)N(CCN2CCOCC2)C(c2ccccc2F)/C1=C(\O)c1ccc(S(=O)(=O)N2CCOCC2)cc1 (centres unmarked),11.5%
11,O=C(NNC(=O)c1ccco1)c1ccccc1,-0.866%
12,O=C(Nc1cccnc1)C1CC(=O)N(c2ccc(F)cc2)C1 (centres unmarked),22.9%
13,Cc1coc2cc3oc(=O)cc(C)c3cc12,8.61%
14,COc1ccc(-c2cc(=O)oc3cc(OC(C)C(=O)NC4CC4)ccc23)cc1 (centres unmarked),3.64%
15,Cc1cccc(OCc2nnc(SCC(=O)Nc3cccc(C(=O)N4CCOCC4)c3)o2)c1C,-2.16%
16,O=C(COC(=O)COc1ccccc1)Nc1cccc([N+](=O)[O-])c1,9.51%
17,O=C(Cn1nnc(-c2ccncc2)n1)N1CCc2ccccc21,15.2%
18,OC(CCN1CCCCC1)c1ccc(-c2ccccc2)cc1 (centres unmarked),-56.4%
19,CSc1ccccc1NC(=O)c1ccc([N+](=O)[O-])cc1,-38.6%
20,CN(C)S(=O)(=O)c1cccc(C(=O)OCC(=O)c2c(N)n(C)c(=O)n(C)c2=O)c1,-11.3%
21,COc1ccc(N(CC(=O)NCc2ccc(F)cc2)S(=O)(=O)c2c(C)noc2C)cc1,-17.9%
22,Cc1cccc(-n2ncc(C#N)c2N)c1,17.4%

row,Structure (SMILES),"hERG current change (%, negative = inhibition) at 10uM"
1,CC(=O)c1cc2c(cc1N(C(=O)c1ccco1)C(C(=O)NC1CCCC1)c1ccccc1F)OCO2 (centres unmarked),4.2%
2,Cc1cc(C(=O)NNC(=O)CN2C(=O)NC3(CCCCC3)C2=O)c(C)o1,8.88%
3,CCN(CC)C(=O)CSc1nnc2sc3ccccc3n12,14.8%
4,O=C(NC(=S)Nc1nc(-c2cccc([N+](=O)[O-])c2)cs1)c1ccccc1Cl,13.5%
5,CCOc1ccc2cc(C3CC(c4ccco4)=NN3S(=O)(=O)c3ccccc3)c(Cl)nc2c1 (centres unmarked),3.09%
6,O=S(=O)(c1ccc(Br)cc1)N1CCC2(CC1)OCCO2,-4.39%
7,CCCOc1ccc(C(=O)Nc2ccccc2[N+](=O)[O-])cc1,5.49%
8,O=C(CNS(=O)(=O)c1ccc(Br)s1)NCc1ccc(F)cc1,-6.05%
9,Cn1ncc(Cl)c1C(=O)Nc1ccc(Cl)cn1,-0.844%
10,COc1cc(-c2nn3c(-c4ccccc4)nnc3s2)cc(OC)c1OC,-0.504%
11,CCOc1ccc(/C=C/[N+](=O)[O-])c2ccccc12,-8.67%
12,CC(C)(C)c1nc2ccccc2[nH]1,7.06%
13,COc1ccc(C2C3=C(CCCC3=O)Nc3nc(SCc4ccccc4)nn32)cc1OC (centres unmarked),-17.9%
14,O=C1c2oc3ccccc3c(=O)c2C(c2cccs2)N1CCCN1CCOCC1 (centres unmarked),3.06%
15,CCn1c(C)c(C)c2cc(C(=O)NCCCN3CCCC3)ccc21,2.38%
16,Cc1cc(=O)oc(C)c1C(=O)NC1CCCCCCC1,1.65%
17,CCc1ccc(NC(=O)C2=CC(c3cccs3)=NS(=O)(=O)N2C)cc1,-8.4%
18,Cn1cc(Br)c(C(=O)Nc2sc3c(c2C#N)CCC3)n1,15.2%
19,O=C(COC(=O)CCCN=C1NS(=O)(=O)c2ccccc21)NNC(=O)c1ccccc1,14.2%
20,CCS(=O)(=O)N1Cc2ccccc2CC1C(=O)Nc1cccc(C)c1 (centres unmarked),-4.95%
21,CCOC(=O)/C(=C\c1ccc(Cl)cc1)c1nc2sc(C)c(C)c2c(=O)[nH]1,9.78%
22,O=C(NC1CC2CCCC(C1)N2Cc1ccco1)NC12CC3CC(CC(C3)C1)C2 (centres unmarked),-46.8%

row,Structure (SMILES),"hERG current change (%, negative = inhibition) at 10uM"
1,O=C(Oc1ccc(Br)cc1C(=S)N1CCOCC1)c1cccc([N+](=O)[O-])c1,17.4%
2,O=C(Nc1ccc(N2CCOCC2)cc1N1CCOCC1)c1ccc([N+](=O)[O-])cc1,2.51%
3,Cc1noc(C)c1C(=O)Nc1c(F)cc(F)cc1Br,3.24%
4,CCNC(=S)N1CCN(Cc2ccccc2)CC1.O=C(O)C(=O)O,-59.9%
5,COc1ccc(-n2c(SCC(=O)Nc3ccc(NC(C)=O)cc3)nc3c([nH]c4ccccc43)c2=O)cc1OC,14.5%
6,O=C(NN1C(=O)c2ccccc2C1=O)c1ccncc1,10.4%
7,COc1ccc(S(=O)(=O)N(Cc2ccco2)Cc2cc3ccccc3[nH]c2=O)cc1,16.6%
8,Cc1ccc(S(=O)(=O)N2CCCOC2CNC(=O)C(=O)NCc2ccccc2C)cc1 (centres unmarked),12.6%
9,Cc1cc(N2CCCCC2)ccc1[N+](=O)[O-],-24.3%
10,Cc1ccc(-c2cc(C(=O)N3CCN(c4ncccn4)CC3)c3cc(Br)ccc3n2)o1,2.67%
11,Cc1nnc(N2CCN(c3ccccc3)CC2)[nH]c1=O,-0.0754%
12,Cc1ccc(S(=O)(=O)N/N=C2/CC(c3ccccc3)Oc3ccccc32)cc1[N+](=O)[O-] (centres unmarked),6.02%
13,CNC(=O)c1[nH]cnc1C(=O)N[C@@H](C)C(=O)OC(C)(C)C,19%
14,COCCCNc1nc2nonc2nc1N1CCN(C2CCCC2)CC1,-20.2%
15,COc1ccc([N+](=O)[O-])cc1NC(=O)C1(c2ccccc2)CCOCC1,-17.4%
16,COc1ccc(S(=O)(=O)N2CCN(C(=O)N(C)C)C2C)cc1 (centres unmarked),18.1%
17,COc1ccc(C(=O)N(CN2CCCC2=O)c2ccc(C)cc2)cc1,0.0531%
18,COc1ccc(NC(=O)CN(C)C(=O)C(C)Sc2ccccc2)cc1 (centres unmarked),5.43%
19,CCNc1nc(Oc2ccc(C(=O)OCC)cc2)nc(N2CCOCC2)n1,-6.59%
20,CCOC(=O)c1ccc(N2C(=O)CC(N3CCC(C(=O)OCC)CC3)C2=O)cc1 (centres unmarked),-8.81%
21,CC(=O)Nc1c(O)nc(SCC(=O)Nc2nnc(SCc3ccccc3)s2)[nH]c1=O,23%
22,C/C(=N\NC(=O)CCCC(=O)O)c1c(-c2ccccc2)c2cc(Cl)ccc2[nH]c1=O,19.9%

row,Structure (SMILES),"hERG current change (%, negative = inhibition) at 10uM"
1,CC(C(=O)Nc1ccc(S(=O)(=O)N2CCCC2)cc1)N1CCc2ccccc2C1 (centres unmarked),-0.0671%
2,CC(C)Oc1ccc(CCC(=O)N/N=C/c2ccncc2)cc1,0.414%
3,COC(=O)c1ccc(/C=N\NC(=O)c2ccc(C)cc2Cl)cc1,11.6%
4,O=C(Cc1ccc(-n2c(=O)c3ccccc3n(Cc3ccc(F)cc3)c2=O)cc1)NCC1CCCO1 (centres unmarked),-19.6%
5,COC(=O)C1=C(C)N(CCCC(=O)O)C(=O)NC1c1cccs1 (centres unmarked),13.1%
6,O=C(COC(=O)c1ccccc1NS(=O)(=O)c1cccs1)NCC12CC3CC(CC(C3)C1)C2,5.15%
7,CCN(C(=O)CN1CCc2ccccc21)c1c(N)n(Cc2ccccc2)c(=O)[nH]c1=O,44.1%
8,CC(C)(C)S(=O)(=O)c1ccsc1C(=O)O,12.5%
9,CCOC(=O)c1c(C)nc2sc3c(=O)n(-c4ccc(C(C)=O)cc4)cnc3c2c1-c1ccc(Cl)cc1,10.8%
10,COc1ccc2nc3ccccc3nc2c1,-0.194%
11,COc1ccc(/C=N/NC(=O)C(=O)N2CCCC2)cc1,11.2%
12,O=C(CCC(=O)c1ccccc1)Nc1ccc(C(=O)O)cc1,13.8%
13,COC(=O)c1cc(N2CCN(C)CC2)nc2ccccc12.Cl,-21.9%
14,CCOC(=O)N/N=C/c1cn(Cc2ccc(Cl)cc2)c2ccccc12,14.1%
15,C/C(=N/NC(=O)c1ccc(C)nc1)c1ccc2c(c1)CCCC2,-19.1%
16,COc1ccc(C2CC(=O)C(C=NCCN3CCOCC3)=C(O)C2)cc1 (centres unmarked),6.95%
17,COC(=O)Cc1c(C)[nH]n(-c2cc(Cl)cc(Cl)c2)c1=O,15.9%
18,CCN(CC)c1ccc(CNCCc2ccc(F)cc2)cc1.Cl,-58.8%
19,O=c1c([N+](=O)[O-])c(O)c2ccccc2n1Cc1ccccc1,18.2%
20,Cc1ccc(S(=O)(=O)Nc2ccc(C(=O)N3CCOCC3)cc2)cc1,20.9%
